Source: PubChem BioAssay AID504339 (National Center for Advancing Translational Sciences (NCATS), 2011)
The campaign covered roughly 390,000 compounds. About 17,000 (4.4%) were called active. The shares of active, inactive and inconclusive entries below differ from those in the screen. Calls come from the whole dose curve; as a rule, active = well fitted inhibition curve with a large enough effect; inconclusive = small, poorly fitted or top-dose-only effect; inactive = no such curve, though single readings can be large or run the other way. Where the call is inconclusive, the potency comes from a doubtful curve fit.

molecular target: Lysine-specific demethylase 4A (Homo sapiens) (UniProt O75164); assay: qHTS Assay for Inhibitors of JMJD2A-Tudor Domain; details: AlphaScreen JMJD2A-Tudor / H3K4me3 peptide binding; activity change, negative = inhibition: at 114 µM (top of the series); note: nearly all actives have a fitted effect of over 50% in size
Sequence of UniProt O75164 (O75164 whole entry, looked up, the tested form may be a part): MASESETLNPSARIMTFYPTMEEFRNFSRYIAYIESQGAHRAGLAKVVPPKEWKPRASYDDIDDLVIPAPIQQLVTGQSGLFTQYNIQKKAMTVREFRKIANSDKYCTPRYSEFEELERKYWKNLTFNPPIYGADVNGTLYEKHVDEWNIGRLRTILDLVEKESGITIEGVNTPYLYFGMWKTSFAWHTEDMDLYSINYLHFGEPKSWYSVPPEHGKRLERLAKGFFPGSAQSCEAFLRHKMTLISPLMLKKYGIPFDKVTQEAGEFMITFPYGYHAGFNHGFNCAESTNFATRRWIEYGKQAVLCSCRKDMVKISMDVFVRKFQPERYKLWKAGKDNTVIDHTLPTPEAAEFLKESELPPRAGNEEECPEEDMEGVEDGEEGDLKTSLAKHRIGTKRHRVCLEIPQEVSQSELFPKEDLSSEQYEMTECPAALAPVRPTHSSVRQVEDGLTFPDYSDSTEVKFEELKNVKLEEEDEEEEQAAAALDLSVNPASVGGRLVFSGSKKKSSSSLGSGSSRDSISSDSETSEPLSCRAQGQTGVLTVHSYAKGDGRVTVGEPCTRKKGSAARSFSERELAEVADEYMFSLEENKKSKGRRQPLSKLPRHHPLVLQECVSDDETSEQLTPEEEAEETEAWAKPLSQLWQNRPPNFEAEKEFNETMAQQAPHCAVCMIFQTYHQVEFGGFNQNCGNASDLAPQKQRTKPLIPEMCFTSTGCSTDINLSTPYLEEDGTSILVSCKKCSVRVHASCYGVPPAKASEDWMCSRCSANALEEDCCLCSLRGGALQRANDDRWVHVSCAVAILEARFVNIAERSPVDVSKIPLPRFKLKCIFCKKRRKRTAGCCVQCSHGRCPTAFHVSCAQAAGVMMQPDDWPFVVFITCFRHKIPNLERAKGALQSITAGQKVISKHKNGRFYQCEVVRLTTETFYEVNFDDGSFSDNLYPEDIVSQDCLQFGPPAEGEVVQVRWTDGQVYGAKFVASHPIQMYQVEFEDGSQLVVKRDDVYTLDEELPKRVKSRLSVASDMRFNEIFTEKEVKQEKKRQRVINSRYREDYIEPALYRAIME
% is set by controls: 0 for no effect and ±100 for the full control effect; potency is the fitted concentration of half-maximal effect; tags give direction and shape of the fitted curve.

| Compound | Potency | activity change, negative = inhibition |
| --- | --- | --- |
| COc1ccccc1CN1CCSCC1 | active: 6.31 µM | – |
| CN(C(=O)Cc1c[nH]c2ccccc12)C(C(=O)Nc1ccc2c(c1)OCO2)c1ccccc1 (stereo unspecified) | inconclusive: 44.7 µM [inhibitor, partial curve] | – |
| C=CCC1CCCC(=O)N2CCCC12 (stereo unspecified) | – | inactive: -0.685% |
| Cn1cccc1Cc1nnc(SCC(=O)Nc2ccc(F)cc2)n1CCc1ccccc1 | inconclusive: 50.1 µM [inhibitor, partial curve] | – |
| O=P(O)(CCCP(=O)(O)CCc1ccccc1)CCc1ccccc1 | inconclusive: 79.4 µM [inhibitor, single point] | – |
| Cc1ccc(OCCN2CCNCC2)c([N+](=O)[O-])c1 | active: 39.8 µM | – |
| CCOC(=O)c1cnc(SC2CC(=O)N(c3ccccc3)C2=O)nc1N (stereo unspecified) | – | inactive: 2.92% |
| Cc1ccccc1C1C(C#N)=C2N=C(N)c3c(sc4c3CCCCC4)N2C2=C1C(=O)CC(C)(C)C2 (stereo unspecified) | inconclusive: 8.91 µM [inhibitor, full curve] | – |
| Cc1cc(C)n(/N=C/c2cc([N+](=O)[O-])ccc2O)c(=O)c1 | inconclusive: 25.1 µM [inhibitor, full curve] | – |
| C[N+](C)(C)CCCNC(=O)c1ccc(/C=N/O)nc1 | active: 3.98 µM | – |
| O=C(COc1ccc(Cl)cc1Br)Nc1ccncc1 | – | inactive: -12.6% |
| O=C(CCSCCC(=O)NCc1ccco1)NCc1ccco1 | active: 20 µM | – |
| COc1ccccc1NC(=O)N[C@@H](Cc1c[nH]c2ccccc12)C(=O)NN | inconclusive: 22.4 µM [inhibitor, full curve] | – |
| Cc1cc(N2CCCC2)ccc1NC(=O)CN1C(=O)NC(C)(c2ccccc2)C1=O (stereo unspecified) | inconclusive: 0.631 µM [inhibitor, full curve, poor fit] | – |
| Cc1ccccc1N1CCN(C(=S)c2ccc(-c3ccc([N+](=O)[O-])cc3)o2)CC1 | inconclusive: 8.91 µM [inhibitor, full curve] | – |
| CCCNC(=O)c1ccc(Cn2c(=S)[nH]c3c([nH]c4ccc(OC)cc43)c2=O)cc1 | inconclusive: 44.7 µM [inhibitor, single point] | – |
| CCCSc1cc(NCCOC(C)=O)c([N+](=O)[O-])c2nonc12 | – | inactive: -17.7% |
| COc1ccc(Cl)cc1Nc1nc(-c2sc(NC(=O)C(C)(C)C)nc2C)cs1 | inconclusive: 56.2 µM [inhibitor, partial curve] | – |
| Cc1[nH]c2ccccc2c1/C=N/NS(=O)(=O)c1ccccc1 | inconclusive: 56.2 µM [inhibitor, partial curve] | – |
| CCOC(=O)C1(CCOc2ccccc2)CCN(Cc2cccc(OC)c2O)CC1 | inconclusive: 79.4 µM [inhibitor, single point] | – |
| CCSc1nnc2c(n1)OC(c1ccc(OCC(=O)O)cc1)Nc1ccccc1-2 (stereo unspecified) | – | inactive: -30.4% |
| O=C(c1ccc(F)cc1)N1CCN(Cc2ccccc2Br)CC1 | active: 25.1 µM | – |
| CNC(=O)c1cccc(NC(=O)c2cc(-c3ccccc3)nc3c2cnn3C(C)C)c1 | inconclusive: 56.2 µM [inhibitor, partial curve] | – |

| Compound | Potency | activity change, negative = inhibition |
| --- | --- | --- |
| O=C(NC(=S)Nc1ccc(S(=O)(=O)Nc2nccs2)cc1)c1ccccc1F | inconclusive: 15.8 µM [inhibitor, full curve] | – |
| O=C(CC1CCCCC1)NCCOc1ccccc1 | active: 50.1 µM | – |
| Cc1ccc2c(c1)-c1c(cnn1CC(=O)N1CCCN(Cc3ccccc3F)C1)CO2 | – | inactive: -28.9% |
| Cc1ccc(S(=O)(=O)n2c([N+](=O)[O-])cnc2C)c(C)c1C | inconclusive: 31.6 µM [inhibitor, single point] | – |
| Cc1cc(C(=O)N2CCOCC2)ccc1[N+](=O)[O-] | inconclusive: 79.4 µM [inhibitor, partial curve] | – |
| COc1cccc(NC(=O)CN(C)C(=O)c2ccc(NC3CC3)c([N+](=O)[O-])c2)c1 | inconclusive: 56.2 µM [inhibitor, partial curve] | – |
| COc1cc(C2N(c3cc(C)on3)C(=O)C3CCCN32)cc(OC)c1OC (stereo unspecified) | inconclusive: 22.4 µM [inhibitor, full curve, poor fit] | – |
| O=C(Nn1cc(C(=O)Nc2ccccc2F)c2ccccc2c1=O)c1cnccn1 | active: 28.2 µM | – |
| CCc1ccc(NC(=O)CSc2nnc(CNC(=O)c3c(F)cccc3Cl)o2)cc1 | – | inactive: -15.4% |
| CCOC(=O)c1c(N2C(=O)Nc3cc(Cl)c(Cl)cc3N2O)sc2c1CCCCC2 | active: 79.4 µM | – |
| CCOc1ccc(-n2c(N)c(C(=O)N3CCN(C)CC3)sc2=S)cc1 | – | inactive: -29.1% |
| CCCN(CCC)C(C(=O)Nc1cccc(OC)c1)c1ccccc1 (stereo unspecified) | – | inactive: -1.49% |
| Nc1nc(Cl)cc(N2CCC(c3cc(-c4ccc(Cl)cc4Cl)n[nH]3)CC2)n1 | inconclusive: 25.1 µM [inhibitor, full curve, poor fit] | – |
| Cc1ccc(C(=O)O)cc1NC(=S)NC(=O)c1ccc(COc2ccccc2)cc1 | inconclusive: 50.1 µM [inhibitor, partial curve, poor fit] | – |
| COc1ccc(-c2nc(C(=O)O)cs2)cc1OC | inconclusive: 63.1 µM [inhibitor, partial curve, poor fit] | – |
| CC(c1ccc(O)cc1)(c1ccc(O)cc1)c1ccc(CCBr)cc1 | – | inactive: -33.3% |
| Cc1ccc(NC(=O)CN(C)C(=O)c2cc(S(=O)(=O)N(C)C)ccc2N2CCCC2)cc1 | – | inactive: -19.3% |
| CCOC(=O)C1=C(C)NC(=S)NC1/C=C/c1ccccc1 (stereo unspecified) | inconclusive: 63.1 µM [inhibitor, single point] | – |
| CCCc1ccc(OCc2ccc(C(=O)N3CCN(c4ccccn4)CC3)o2)c(OC)c1 | inconclusive: 44.7 µM [inhibitor, partial curve] | – |
| Cc1ccsc1/C=N/N1CCN(c2ccccc2)CC1 | inconclusive: 35.5 µM [inhibitor, full curve] | – |
| COc1ccc(CNc2oc(COc3cccc(C)c3)nc2C#N)cc1 | inconclusive: 22.4 µM [inhibitor, full curve, poor fit] | – |
| CC(C)Oc1ccc(C(=O)Nc2ccc(N(C)C)cc2)cc1 | inconclusive: 50.1 µM [inhibitor, partial curve] | – |
| O=C(Nc1ccccc1C(=O)O)c1cncc(Br)c1 | inconclusive: 39.8 µM [inhibitor, single point] | – |
